{"source": "patent US6949753B2", "about": "“Device and method for photoactivation” (Cerus Corporation, priority 1992, dated 2005)", "key": {"[1]": {"assay": "Photochemical breakdown of 8-MOP compared with AMT, reverse phase HPLC", "assay_type": "physicochemical", "settings": "AMT compared with 8-MOP", "procedure": "In this example, the photochemical breakdown of 8-MOP is compared with AMT. The samples were analyzed by reverse phase HPLC using a Rainen Dynamax 300A column. Gradient elution was performed with 0.1 M ammonium acetate/acetonitrile (0-70% acetonitrile over 42 minutes). AMT elutes as a single peak at approximately 24 minutes under these conditions. Detection was by absorption at either 260 or 330 nm. The latter wavelength was used for the plasma containing samples.\nStandard solutions of each compound were prepared at various concentrations. These solutions were then diluted 1:10 into water, then 300 ul injected for analysis. All samples were monitored at 300 nm. Peaks were analyzed by measuring either peak height or peak area, then converted to a gh/ml value using the standard plot. Peak area was determining by photocopying the trace, cutting out the copy of the peak, then weighing the resultant trace. The two methods gave essentially the same result."}, "[2]": {"test_system": "GMP140 on human platelets", "assay": "Platelet activation, GMP140 expression by CD62 antibody and flow cytometry (FACSCAN)", "assay_type": "cell-based", "settings": "for Activation, PMA Activated: PMA 10−^7 M positive control", "text": "When platelets become activated, an alpha granule membrane glycoprotein called GMP140 becomes exposed on the platelet surface. Less than (5%) of fresh, normal unstimulated platelets express detectable GMP 140 levels by flow cytometry. See generally M. J. Metzelaar, Studies on the Expression of Activation-Markers on Human Platelets (Thesis 1991).\nTo measure GMP140, a small aliquot of platelet rich plasma is placed in HEPES buffer containing a GMP140-binding antibody or control mouse IgG. CD62 is a commercially available monoclonal antibody which binds to GMP 140 (available from Sanbio, Uden, the Netherlands; Caltag Labs, So. San Francisco, Calif., and Becton Dickinson, Mountain View, Calif.). After a fifteen minute incubation, Goat Anti-Mouse IgG conjugated to FITC is added to the tube in saturating amounts. Finally, the cells are diluted in isotonic saline, fixed with paraformaldehyde and analyzed on a FACSCAN™ (Becton Dickinson, Mountain View, Calif.). The positive control is made by adding Phorbol Myristate Acetate (PMA) to the test system at a final concentration of 10−^7 M.\nIn this example, CD62 was employed to measure the impact, if any, of irradiation alone on platelet activation. The antibody was stored in small aliquots (0.01 mg/ml) at −40° C. prior to use. A mouse IgG control (0.05 mg/ml) (Becton Dickinson, Mountain View, Calif. #9040) 5× concentrated was employed. At time of use, this was diluted 1:5 in HEPES buffer. The secondary antibody was goat Anti-Mouse IgG conjugated to FITC (TAGO, Burlingame, Calif. #3506). This was stored in small aliquots at −20° C. Phorbol Myristate Acetate (PMA) (Sigma, St. Louis, Mo.) was stored at −40° C. At time of use, this was dissolved in DMSO (working concentration was 1.62×10−^5 M).\n16% Paraformaldehyde (PFA) (Sigma, St. Louis, Mo.) was prepared by adding 16 grams paraformaldehyde to 100 ml de-ionized water. This was heated to 70° C., whereupon 3 M NaOH was added dropwise until the solution was clear. The solution was cooled and the pH was adjusted to 7.4 with 1 N HCl. This was filtered and stored. A commercially available isotonic buffer was used: Hematall Isotonic Diluent (Fisher #CS 606-20).\nFollowing irradiation, the platelets were stored for 5 days. At specific time points, aliquots were taken and processed.\nProcessing involved adding an aliquot (e.g. 5 microliters) of platelet concentrate to each microcentrifuge tube containing the antibody and appropriate reagents and this was mixed very gently by vortex. The samples were incubated for 15 minutes at room temperature.\nThe Goat anti-Mouse IgG-FITC (diluted 1:10 in HEPES buffer) was added (5 microliters) to each tube and the solution was mixed by gentle vortex. The samples were incubated for an additional 15 minutes at room temperature.\nIsoton II was added (1 ml) to each tube and mixed gently with a polypropylene disposable pipette. 8% PFA in HEPES (150 microliters) was added to each diluted sample to final 1%. The platelets were analyzed on the FACSCAN™.\nShorter Irradiation Times."}, "[3]": {"test_system": "Yersinia enterocolitica, wild type, serotype 3, biotype 4", "assay": "Inactivation of Yersinia enterocolitica in human platelet concentrate by 8-MOP plus UVA irradiation, colony counts on BHI agar", "assay_type": "cell-based", "settings": "for sufficiency of irradiation for inactivation: 10 ug/ml 8-MOP; for -titer (change of log titer versus untreated control) / log/ml (bacterial titer after treatment): irr. time 10 min UVA; for log/ml (bacterial titer after treatment): platelet concentrate, 25° C., untreated control 9.1", "text": "This organism is found in blood products."}, "[4]": {"test_system": "Calf Thymus DNA", "assay": "Photoaddition of 3H-8-MOP to Calf Thymus DNA in plasma versus protein free medium", "assay_type": "binding", "settings": "plasma versus protein free media (TE buffer), irradiated 0-16 minutes at 25° C.", "procedure": "Although this measurement used eukaryotic nucleic acid rather than bacterial nucleic acid, it is a useful indicator of the degree of adduct formation for bacteria.\n[…]. […] To +DNA samples, 40 ul of DNA stock (7.7 mg/ml) was added as well as either 460 ul plasma (day old frozen) or 450 ul Tris-EDTA (“TE”) buffer. To the latter was also added 10 ul 5M NaCl. For −DNA samples (i.e. the controls), 184 ul plasma and 16 ul water was added.\nThe samples were mildly vortexed for approximately one hour and the counts were checked to confirm that the 8-MOP dissolved.\nEach sample (100 ul) was irradiated on an HRI-100 (HRI Research Inc., Concord, Calif.) at 25° C. for 0, 2, 4, 8, and 16 minutes. Samples were kept at 4° C. overnight after irradiation. Thereafter, the samples were extracted. First, a phenol solution was prepared at pH 8 by equilibrating with 0.1 M Tris pH 8. Each sample was then extracted with 100 ul phenol. Each sample was centrifuged for 5 minutes to remove the aqueous phase to a new tube. A second extraction was performed with 100 ul 1:1 phenol:chloroform. A final extraction was performed with 100 ul chloroform.\nThe final aqueous phase was precipitated by adding 50 ul NaCl adjusted to give a final concentration of NaCl of 0.2 M and then adding 250 ul ethanol. The samples were again centrifuged (10 minutes). […] The final pellets were brought up in 600 ul water and 100 ul was counted. […]"}, "[5]": {"test_system": "viruses", "settings": "300 ug/ml of 8-MOP, one hour or more of irradiation with ultraviolet light; cited from earlier work"}}}
{"smiles": "Cc1oc2c(C)c3oc(=O)cc(C)c3cc2c1CN", "note": "[AMT, 4′-aminomethyl-4,5′,8-trimethylpsoralen]", "values": [{"measurement": "photochemical degradation on irradiation (HPLC, FIG. 7)", "setting": "[1]", "value": "degrades more quickly than 8-MOP"}]}
{"smiles": "CCCCCCCCCCCCCC(=O)O[C@@H]1[C@@H](C)[C@@]2(O)[C@@H](C=C(CO)C[C@]3(O)C(=O)C(C)=C[C@@H]23)[C@@H]2C(C)(C)[C@]12OC(C)=O", "note": "[PMA, Phorbol Myristate Acetate]", "values": [{"measurement": "Activation, PMA Activated", "setting": "[2]; Day 3, Control (no irradiation)", "value": 85, "unit": "%"}, {"measurement": "Activation, PMA Activated", "setting": "[2]; Day 3, UV 5′", "value": 87, "unit": "%"}, {"measurement": "Activation, PMA Activated", "setting": "[2]; Day 3, UV 10′", "value": 84, "unit": "%"}, {"measurement": "Activation, PMA Activated", "setting": "[2]; Day 5, Control (no irradiation)", "value": 89, "unit": "%"}, {"measurement": "Activation, PMA Activated", "setting": "[2]; Day 5, UV 5′", "value": 86, "unit": "%"}, {"measurement": "Activation, PMA Activated", "setting": "[2]; Day 5, UV 10′", "value": 79, "unit": "%"}]}
{"smiles": "COc1c2occc2cc2ccc(=O)oc12", "note": "[8-MOP, 8-methoxypsoralen]", "values": [{"measurement": "bacteria inactivated", "setting": "[3]; 3 ug/ml of 8-MOP, 10 min UVA", "value": "almost six logs"}, {"measurement": "sufficiency of irradiation for inactivation", "setting": "[3]; five minutes of irradiation", "value": "appears to be adequate"}, {"measurement": "sufficiency of irradiation for inactivation", "setting": "[3]; ten minutes irradiation", "value": "more than enough irradiation"}, {"measurement": "-titer (change of log titer versus untreated control)", "setting": "[3]; 8-MOP 3 ug/ml", "value": "−5.7"}, {"measurement": "log/ml (bacterial titer after treatment)", "setting": "[3]; 8-MOP 3 ug/ml", "value": 3.4, "unit": "log/ml"}, {"measurement": "-titer (change of log titer versus untreated control)", "setting": "[3]; 8-MOP 10 ug/ml", "value": ">−9.1"}, {"measurement": "log/ml (bacterial titer after treatment)", "setting": "[3]; 8-MOP 10 ug/ml", "value": "<0", "unit": "log/ml"}, {"measurement": "-titer (change of log titer versus untreated control)", "setting": "[3]; 8-MOP 30 ug/ml", "value": ">−9.1"}, {"measurement": "log/ml (bacterial titer after treatment)", "setting": "[3]; 8-MOP 30 ug/ml", "value": "<0", "unit": "log/ml"}, {"measurement": "-titer (change of log titer versus untreated control)", "setting": "[3]; 8-MOP .06 ug/ml", "value": "−0.1"}, {"measurement": "log/ml (bacterial titer after treatment)", "setting": "[3]; 8-MOP .06 ug/ml", "value": 9.0, "unit": "log/ml"}, {"measurement": "-titer (change of log titer versus untreated control)", "setting": "[3]; 8-MOP .2 ug/ml", "value": "−2.3"}, {"measurement": "log/ml (bacterial titer after treatment)", "setting": "[3]; 8-MOP .2 ug/ml", "value": 6.8, "unit": "log/ml"}, {"measurement": "addition of 8-MOP to DNA (adducts per 1000 base pairs, FIG. 6)", "setting": "[4]", "value": "much better in the protein free media"}, {"measurement": "impact on platelets (CD62 assay) of irradiation in the presence of psoralen", "setting": "[2]; 10 ug/ml 8-MOP, five minutes UVA, 25° C., stored for 5 days", "value": "without damage to the cells"}, {"measurement": "virus inactivation", "setting": "[5]", "value": "effectively inactivate viruses"}]}
